{"source": "PubChem BioAssay AID588453", "about": "(National Center for Advancing Translational Sciences (NCATS), 2011)", "note": "Among all 390,000 compounds or so, about 4,000 (1%) were called active. The shares of active, inactive and inconclusive entries below differ from those in the screen. The call rests on the fitted dose curve; in most records, active means well fitted inhibition curve with a large enough effect; inconclusive means small, poorly fitted or top-dose-only effect; inactive means no such curve, though single readings can be large or run the other way. Potencies of inconclusive entries are doubtful fits and often do not repeat. On the % scale 0 is the no-effect control and ±100 the full control effect; potency means the concentration at half of the fitted maximal effect; tags describe the fitted curve by direction and shape."}
{"target": "Thioredoxin reductase 1, cytoplasmic (Rattus norvegicus) (UniProt O89049)", "sequence (O89049 whole entry, looked up)": "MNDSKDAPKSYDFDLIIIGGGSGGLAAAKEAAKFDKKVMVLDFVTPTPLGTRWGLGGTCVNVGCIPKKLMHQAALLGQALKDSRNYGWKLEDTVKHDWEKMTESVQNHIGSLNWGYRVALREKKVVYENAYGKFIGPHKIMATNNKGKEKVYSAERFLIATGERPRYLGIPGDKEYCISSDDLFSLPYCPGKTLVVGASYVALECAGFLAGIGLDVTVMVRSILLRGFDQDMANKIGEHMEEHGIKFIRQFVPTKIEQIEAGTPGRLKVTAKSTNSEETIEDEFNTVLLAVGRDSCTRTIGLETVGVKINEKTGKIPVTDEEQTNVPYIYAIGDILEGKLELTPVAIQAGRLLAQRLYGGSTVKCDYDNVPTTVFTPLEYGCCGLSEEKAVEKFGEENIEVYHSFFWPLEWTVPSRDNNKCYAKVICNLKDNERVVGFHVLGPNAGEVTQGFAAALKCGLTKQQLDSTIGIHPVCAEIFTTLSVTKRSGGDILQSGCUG", "assay": "qHTS Assay for Inhibitors of Mammalian Selenoprotein Thioredoxin Reductase 1 (TrxR1): qHTS; further: nearly all actives have a fitted effect of over 65% in size", "conditions": "recombinant rTrxR1, NADPH fluorescence consumption, selenite substrate; series mostly up to 114 µM", "outline": "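Rat TrxR1 (90 nM in the dispensed reagent) was pre-reduced with 400 uM NADPH for 5 min at room temperature, then incubated with compound for 15 min. After 400 uM selenite was added, NADPH fluorescence (Ex 340/Em 450 nm) was followed for 8 min.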"}
{"smiles": "COc1ccc(NC(=O)[C@@H]2[C@@H]3C(=O)N(C4CCCCC4)C(=O)[C@@H]3C3c4ccccc4C=CN32)cc1", "note": "(stereo partly specified)", "Potency": "inactive"}
{"smiles": "Nc1nc(CN2CCCCCC2)nc(Nc2ccccc2)n1", "Potency": "active: 15.8 µM"}
{"smiles": "CC(C)C(=O)Nc1nnc(NC(=S)Nc2ccccc2)s1", "Potency": "active: 10 µM"}
{"smiles": "CCCC(=O)NC(=S)NNC(=O)c1ccc([N+](=O)[O-])cc1", "Potency": "inconclusive: 25.1 µM [inhibitor, single point]"}
{"smiles": "CCN(CC)c1ccc2cc(C(N)=O)c(=O)oc2c1", "Potency": "inconclusive: 35.5 µM [inhibitor, partial curve, poor fit]"}
{"smiles": "Cc1ccc(S(=O)(=O)N2CCCN(S(=O)(=O)c3ccc(C)cc3)CC2)cc1", "Potency": "inactive"}
{"smiles": "CN1CCc2c(sc3c2C(=O)NC(/C=C\\c2ccccc2)N3)C1", "note": "(stereo unspecified)", "Potency": "inconclusive: 39.8 µM [inhibitor, single point]"}
{"smiles": "O=C(O)c1ccc(N2C(=O)/C(=C/c3ccc(-c4ccc([N+](=O)[O-])cc4)o3)C=C2c2ccccc2)cc1", "Potency": "inconclusive: 79.4 µM [inhibitor, partial curve]"}
{"smiles": "O=C(NCC1CCCO1)C(=O)N/N=C/c1ccc(O)c(Cl)c1", "note": "(stereo unspecified)", "Potency": "inactive"}
{"smiles": "CCc1ccc(NC(=O)CSc2nnc(-c3cnccn3)n2Cc2ccco2)cc1", "Potency": "inconclusive: 50.1 µM [inhibitor, partial curve]"}
{"smiles": "COC(=O)C1=C(O)/C(=C\\c2ccc(CNC(=O)C(=O)Nc3ccc(C)c(C)c3)o2)N=C1C", "Potency": "inconclusive: 25.1 µM [inhibitor, single point]"}
{"smiles": "COc1ccc(S(=O)(=O)NC(C)(C)CO)cc1-c1nnc2c3ccccc3c(C)nn12", "Potency": "inactive"}
{"smiles": "COc1ccc(CNC(=O)c2cc3cccc4c3n2CC(C)S4)cc1", "note": "(stereo unspecified)", "Potency": "inactive"}
{"smiles": "Cc1nc2ccccc2n1CCc1nc2c3ccccc3nc(=S)n2[nH]1", "Potency": "inconclusive: 44.7 µM [inhibitor, partial curve]"}
{"smiles": "COc1ccc(/C=C2\\CCc3ccccc3C2=O)cc1CN1CCOCC1", "activity change, negative = inhibition": "inactive: 13.7% [at 11.4 µM]"}
{"smiles": "CCOC(=O)c1[nH]c(C)c(/C(O)=C2\\C(=O)C(=O)N(CCCN3CCOCC3)C2c2cccnc2)c1C", "note": "(stereo unspecified)", "Potency": "active: 44.7 µM"}
{"smiles": "N#Cc1ccc(-c2cccnc2)nc1SCC(=O)Nc1sc2c(c1C#N)CCC2", "Potency": "inconclusive: 50.1 µM [inhibitor, single point]"}
{"smiles": "CN1C(=O)C2(c3ccccc31)C1CCCC=C1C(C#N)=C(N)C2(C#N)C#N", "note": "(stereo unspecified)", "Potency": "inconclusive: 25.1 µM [inhibitor, single point]"}
{"smiles": "O=c1nc2ccccc2c(NS(=O)(=O)c2ccc(Cl)cc2)n1-c1ccccc1", "Potency": "inactive"}
{"smiles": "CCc1ccc2c(Cl)c(C(=O)N/N=C/c3c[nH]c4ccccc34)sc2c1", "Potency": "inactive"}
{"smiles": "COc1ccc(N(C(=O)CCl)C(C(=O)NCCc2ccccc2)c2cccs2)cc1", "note": "(stereo unspecified)", "Potency": "active: 11.2 µM"}
{"smiles": "CSc1sc(C#N)c2c1/C(=N\\O)CCC2", "Potency": "inconclusive: 89.1 µM [inhibitor, single point]"}
{"smiles": "O=[N+]([O-])c1cc(-c2csc(NCCc3nc4cc(Cl)c(Cl)cc4n3CCCO)n2)ccc1Cl", "Potency": "inconclusive: 89.1 µM [inhibitor, single point]"}
{"smiles": "c1ccc(Oc2c3ccccc3nc3ccccc23)cc1", "Potency": "active: 8.91 µM"}
{"smiles": "NC(=O)CN1C(=O)/C(=c2\\sc3nc(=O)c(Cc4ccccc4)nn3c2=O)c2ccccc21", "Potency": "active: 17.8 µM"}
{"smiles": "COc1ccccc1CNC(=O)CSc1ccc(C)cc1", "Potency": "inactive"}
{"smiles": "Cc1ccc(NC(=O)C2CCN(C(=O)c3cnn(-c4ccccc4)c3-n3cccc3)CC2)cc1Cl", "Potency": "inactive"}
{"smiles": "O=C(NCCCN1CCCC1=O)c1cccc(S(=O)(=O)Nc2ccc(Br)cc2)c1", "Potency": "inconclusive: 56.2 µM [inhibitor, partial curve, poor fit]"}
{"smiles": "Cc1ccc(C)c(N(CC(=O)NCc2ccco2)C(=O)CCC(=O)Nc2ccccn2)c1", "Potency": "inconclusive: 35.5 µM [inhibitor, single point]"}
{"smiles": "N#CC(C#N)=Cc1ccc(-c2ccc(S(=O)(=O)N=C(N)N)cc2)o1", "Potency": "inconclusive: 56.2 µM [inhibitor, partial curve, poor fit]"}
{"smiles": "C/C(N)=C(/C#N)C(=O)COC(=O)c1ccccc1Cc1ccccc1", "Potency": "inconclusive: 12.6 µM [inhibitor, partial curve]"}
{"smiles": "Cc1ccc(NC(=O)CC2Nc3ccccc3NC2=O)cc1Cl", "note": "(stereo unspecified)", "Potency": "inconclusive: 89.1 µM [inhibitor, single point]"}
{"smiles": "CNC(=O)c1cc(-c2cccs2)on1", "Potency": "inconclusive: 89.1 µM [inhibitor, single point]"}
{"smiles": "O=c1[nH]c(-[n+]2ccc3ccccc3c2)c(/C=N/N=C(\\[O-])c2ccccc2)s1", "Potency": "inconclusive: 5.01 µM [inhibitor, full curve, poor fit]"}
{"smiles": "Cc1cc(Cl)c(S(=O)(=O)Nc2cc(S(=O)(=O)N3CCOCC3)ccc2F)cc1OCC(N)=O", "Potency": "inconclusive: 89.1 µM [inhibitor, single point]"}
{"smiles": "O=C(Nc1ccccc1C(=O)NCc1cccnc1)c1ccccc1Cl", "Potency": "inactive"}
{"smiles": "O=C(c1ccco1)N(Cc1ccccc1)Cc1ccccn1", "activity change, negative = inhibition": "inactive: 7.85% [at 11.4 µM]"}
{"smiles": "COC(=O)/C(=C/c1c[nH]c2ccccc12)[N+](=O)[O-]", "Potency": "active: 12.6 µM"}
{"smiles": "Clc1ccc(-c2nc3ccccc3[nH]2)cn1", "Potency": "inactive"}
{"smiles": "CCOC(=O)N1CCN(C2=C(NS(=O)(=O)c3ccc(C)cc3)C(=O)c3ccccc3C2=O)CC1", "Potency": "inactive"}
{"smiles": "COC(=O)CCCC(=O)N1CCOCCN(C(=O)CCCC(=O)OC)CCOCC1", "Potency": "inactive"}
{"smiles": "CCCCC(O)(CCN1CCOCC1)c1ccc(Cl)cc1", "note": "(stereo unspecified)", "Potency": "inconclusive: 39.8 µM [inhibitor, single point]"}
{"smiles": "Cc1cc2c(n1-c1ccc(C(=O)NCc3cccc(Br)c3)cc1)CCC(C)C2", "note": "(stereo unspecified)", "Potency": "inconclusive: 22.4 µM [inhibitor, partial curve, poor fit]"}
{"smiles": "Cc1cccc(NC(=O)CSc2ccc(-c3ccccn3)nn2)c1C", "Potency": "inactive"}
{"smiles": "COc1ccc(-n2ncc(Cl)c(Cl)c2=O)cc1", "Potency": "inconclusive: 28.2 µM [inhibitor, single point]"}
{"smiles": "Cn1c(=O)[nH]c(=O)c2c1nc(Br)n2C/C=N/Nc1ccccc1", "Potency": "inconclusive: 39.8 µM [inhibitor, partial curve]"}
